“And” between values parts separate entries of the source, which are not always exact repeats. Equal values may be shown once.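 Cultured in 96-well plates, cells were exposed to test compound for 48 hours across five concentrations. GI50: concentration for 50% inhibition of growth. TGI: total growth inhibition.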 Peptide text beside a SMILES is read from it. * marks the point of attachment. Cbz = O=C(OCc1ccccc1)*
system: NCI-H322M lung; assay: DTP human tumour cell line panel, 48 h

SMILES	TGI	GI50
NC(=O)CNC(=O)[C@@H]1C[C@@H](OCCC(=O)O)CN1C(=O)OCc1ccccc1	> 100 µM	
O=[N+]([O-])c1ccc(O)c(C=NCC2CCCN3CCCCC23)c1 (centres undefined)	> 100 µM	
CC(=O)c1ccccc1NS(=O)(=O)c1ccc2nc(C)n(NS(=O)(=O)c3ccccc3C(C)=O)c(=O)c2c1	> 100 µM	
COC(=O)/C(=C\c1c(-c2ccccc2)[nH]c2ccccc12)S(C)(=O)=O	39 µM	7.41 µM
Cc1ccc(S(=O)(=O)SCc2ccccc2)cc1	> 100 µM	
Cc1cc(=O)c2ccccc2n1CCCCCCCCCCn1c(C)cc(=O)c2ccccc21	28.7 µM	
N=C(N)SCc1ccc(N=C=S)cc1	29.6 µM	
COC1=CC(=O)NCCN1	> 100 µM	
O=C(CC1C(=O)Nc2ccccc2S1(=O)=O)Nc1cccc(Cl)c1 (centres undefined)	> 100 µM	
COc1ccc(-c2nnc(Nc3nc(O)c(C4=c5cc(F)ccc5=NC4=O)s3)o2)cc1	84.5 µM	25.8 µM
CC(=O)c1ccc2c(c1)N(CCCN(C)C)c1ccccc1S2	32.3 µM	16.2 µM
CCOP(=O)(CC(=O)C1=C(O)C(CCCCNC(=O)OC(C)(C)C)N(Cc2ccccc2)C1=O)OCC (centres undefined)	> 100 µM	
NC(=O)C1CCCN1C(=O)N(CCCl)N=O (centres undefined)	> 100 µM	
O=C(c1ccccc1O)c1[nH]c(Cl)c(Cl)c1-n1c(C(=O)c2ccccc2O)cc(Cl)c1Cl	12.8 µM and 10.9 µM	1.71 µM and 0.941 µM
COc1cc2c(cc1OC)[C@@H]([C@H](O)c1ccccc1)NCC2	> 100 µM	
COCn1c(C)c(C)c2c(=O)oc(C)nc21	> 100 µM	
Clc1ccc(N2CCC(N3CCCC3)CC2)cc1-c1nc2ccccc2[nH]1	> 100 µM	33.5 µM
CCCCCCCCCCCCCCCCOc1ccc(/C=C/C2=[N+](CCCl)CCO2)cc1	> 100 µM	
COC(=O)[C@@H](OC)[C@@H]1Cc2cc3cc(OC4CC(OC5CC(O)C(O)C(C)O5)C(O)C(C)O4)c(C)c(O)c3c(O)c2C(=O)[C@H]1OC1CC(OC2CC(OC3CC(C)(O)C(O)C(C)O3)C(O)C(C)O2)C(O)C(C)O1 (some centres undefined)	0.218 µM	0.0378 µM
Cc1cc2c(=O)[nH]c(N)nc2nc1C	> 100 µM	
O=C1CCCC2=C1CC1=C(CCCC1=O)N2c1cccc([N+](=O)[O-])c1	> 100 µM	
CCCCCCCCCCCCCCNCC(OCC)OCC	33.8 µM	
CC(C)(SCc1ccccc1)C(N)C(=O)O (centres undefined)	> 100 µM	
O=c1[nH]c(=O)n2n1C1C=CC2CC1	> 100 µM	
COc1ccc(C#CC2=C(c3cc(OC)c(OC)c(OC)c3)C(=O)OC2)cc1	24.9 µM	9.09 µM
CCN(CC)CC(=O)Nc1ccc2c(c1)C(=O)c1ccc(NC(=O)CN(CC)CC)cc1C2=O	> 100 µM	

SMILES	TGI	GI50
NCCN1C(=O)c2ccccc2C1(O)c1ccc(Cl)cc1 (centres undefined)	50.9 µM	
COc1cc(NC(C)CCCN)c2ncccc2c1Sc1ccc(Cl)cc1 (centres undefined)		2.93 µM
Nc1[nH]c(=S)c2c(N)n[nH]c2c1C(=O)Nc1ccc(Cl)cc1	> 100 µM	
CCCCS(=O)CC(CO)NC(=O)/C=C/c1c(C)[nH]c(=O)[nH]c1=O (centres undefined)	34.3 µM	
CC(=O)C1=C(C)N(c2ccccc2)C2(O)C=CC(=O)C3=C(O)c4ccccc4C(=O)C312 (centres undefined)	36.7 µM	
CN1C(=O)C(=CN(C)c2ccccc2)C(=O)N(C)C1=O	> 100 µM	
CN(C)c1ccc(C(=C2C=CC(=[N+](C)C)C=C2)c2ccccc2Cl)cc1	2.17 µM	0.327 µM
CCCCc1c2c(nc3c1CC/C(=C\c1ccc([N+](=O)[O-])cc1)C3=O)CCCC2	8.83 µM	
CC(=O)NC1=C(Sc2ccc(Cl)cc2)C(=O)c2ccccc2C1=O	27.9 µM	
O=C1CCCN1CCCN=c1cc2n(-c3ccc(Cl)cc3)c3ccccc3nc-2cc1Nc1ccc(Cl)cc1	76 µM	
CCOC(=O)c1nc2cc(C(F)(F)F)ccc2[n+]([O-])c1C	> 100 µM	> 100 µM
COC(=O)C1=COc2c(n(C)c3ccccc23)-c2ccccc21	> 100 µM	
NC(=S)N/N=C1\CCCCC1C(O)(C(F)(F)Cl)C(F)(F)Cl (centres undefined)	> 10 µM	
CCc1ncnc2cc(OCC3CO3)c(OC)cc12 (centres undefined)	79 µM	
NC(=O)C1N=NSC1NC(=O)c1ccc([N+](=O)[O-])cc1 (centres undefined)	> 100 µM	
C[N+](C)(C)C(C1=CCCC1=O)c1ccccc1 (centres undefined)	> 100 µM	
CCN(CC)CCC(=O)/C=C/c1ccc(C)cc1	29.7 µM	
COC[C@@H](N=CN1CCc2cc(OC)c(OC)cc2C1)C(C)(C)C	> 100 µM	
Cc1ncc(-c2ccnc(Nc3ccc(S(C)(=O)=O)cc3)n2)n1C(C)C	> 9.14 µM	1.91 µM
O[C@H]1[C@H](O)[C@@H](Cn2nnc(-c3ccccc3)c2-c2ccccc2)OCO[C@@H]1Cn1nnc(-c2ccccc2)c1-c1ccccc1	32.9 µM	
N#CCCN(CCC#N)c1ccc(C(N=Nc2ccc(Cl)cc2)=Nc2ccc(Cl)cc2)cc1	> 100 µM	
N#C/C(=C\c1cccc2cnccc12)N1N=NC2C=CC=CC21 (centres undefined)	> 100 µM	23.2 µM
CCOC(=O)N1N(c2ccccc2)C(=O)C1(c1ccccc1)c1ccccc1	> 100 µM	
NC(CO)C(=O)NCC(=O)O (centres undefined)	> 100 µM	
N=C(N)SCc1ccc([N+](=O)[O-])cc1[N+](=O)[O-]	> 100 µM	20.4 µM
O=[p+]1c2ccccc2[nH]c2ccccc21	> 100 µM	

SMILES	TGI	GI50
CC/C=C\C[C@H](O)C/C=C1/C(=O)C=C[C@@H]1C/C=C\CCCC(=O)NC	11.1 µM	2.39 µM
Cc1cc(NS(=O)(=O)c2ccc(NC(=O)COC(=O)c3cccc4c(=O)c5ccccc5[nH]c34)cc2)no1	> 100 µM	
Oc1ccccc1-c1nn2c(CCCCCCCCc3nnc4sc(-c5ccccc5O)nn34)nnc2s1	> 100 µM	
Cc1nn(-c2ccccc2)c2nc3ccc(Cl)cc3c(-c3ccccc3)c12	> 100 µM	
O=C(Sc1sc(=S)sc1SC(=O)c1ccccc1)c1ccccc1	45.8 µM	
Cn1c(=O)c2nc(NCCO)cnc2n(C)c1=O	> 100 µM	
COC(=O)c1ccc(C)cc1CC1Cc2c(C)cccc2C1=O (centres undefined)	> 83.8 µM	
O=C1c2c(c3c4ccccc4[nH]c3c3[nH]c4ccccc4c23)C(=O)N1Cc1ccccc1	12.7 µM	
NC(=O)SCC(=O)Nc1ccc2ncccc2c1	> 100 µM	
Oc1c(CNCCNCc2cc(Cl)cc(Cc3ccccc3)c2O)cc(Cl)cc1Cc1ccccc1	56.7 µM	0.167 µM
C#C/C=C/CC1OC(C(Br)CC)CC(Br)C2CC1O2 (centres undefined)	> 100 µM	
CCOC(=O)CNC(=O)C(C)NC(=O)C(NC(=O)OCc1ccccc1)C(C)C (stereo not drawn) (Cbz-Val-Ala-Gly-OEt; configuration not given here)	> 100 µM	
CCCCN1C(=O)CS/C1=N/Nc1nc2c([nH]1)c(=O)n(C)c(=O)n2C	> 100 µM	
CC(=O)OC(=C(C#N)C#N)c1nccnc1C(C)=O	> 20 µM	
Cc1c(-c2ccc(O)c(O)c2)oc(=O)c2c(O)cccc12	52.3 µM	
CC(=O)N(C(C)=O)n1nc2c(n1)C(=O)c1ccccc1C2=O	> 100 µM	
Cc1cc(O)cc(C)c1/C=C/c1cncc(C(=O)OC(C)(C)C)c1	> 25 µM	> 25 µM
Nc1cc2nc3ccccc3oc-2cc1=O	10.5 µM	4.76 µM
COc1ccc(/C=C(/c2ccccc2)c2c(C)cc(C)c(/C(=C\c3ccc(OC)cc3)c3ccccc3)c2N=Nc2cc(C)cc(C)c2)cc1	> 100 µM	
O=[N+]([O-])c1ccc(COc2cccc3cccnc23)cc1	> 100 µM	
FC(F)(F)c1[nH]ncc1-c1nc2ccc3[nH]ncc3c2c2c1CCCC2	6.45 µM	1.59 µM
COc1ccccc1/C=C/c1nc2ccccc2o1	> 10 µM	
O=S(=O)(NCCO)c1cc[c]([Sb](=[O])([OH])[OH])cc1	> 100 µM	> 100 µM
CC(C)(C)OC(=O)NCCCCCCCCCCn1c2c(c3ccccc3c1=O)C(=O)c1ccccc1-2	> 100 µM	> 100 µM
O=C1N[C@H]2[C@H](O)[C@H](O)[C@@H](O)[C@H](O)[C@@H]2c2cc3c(c(O)c21)OCO3		0.254 µM and 0.211 µM
O=C(c1ccccc1)c1nn(-c2ccccc2)c2nc3nc(-c4ccccc4)cc(=O)n3nc12	48.3 µM	22.4 µM

SMILES	TGI	GI50
COc1ccc(-c2nc3cc(C(F)(F)F)ccc3n2CC2CCCN3CCCCC23)cc1 (centres undefined)	30.2 µM	
Cc1[nH]c(=O)nc(N(CCO)/N=C/c2ccc(Cl)cc2)c1C(=O)Nc1ccc(Cl)cc1	> 100 µM	
CC(C)(C)N=CN(C=C(c1ccccc1)c1ccccc1)C1CCCCC1	> 100 µM	
Cc1cc2c(cc1C)[n+](Cc1ccc3ccccc3n1)cn2Cc1ccc2ccccc2n1	8.62 µM	1.37 µM
CSc1nc(N)c2c(n1)NC(c1ccccc1)C1CCc3ccccc3C1=N2 (centres undefined)	> 100 µM	> 100 µM
CS/C=C\C(=O)O[C@H]1C[C@@H]2[C@@H](O)c3occ(C)c3C[C@]2(C)[C@@H](C)C1	> 100 µM	
CN(C)Cc1cc(C(=O)/C=C/c2ccc(F)cc2)cc(CN(C)C)c1O	> 100 µM	
COc1ccc2[nH]c(O)c(/C=c3/ccc4c(c3)N=C(c3ccc(F)cc3)N=4)c2c1	10.7 µM	3.05 µM
COc1ccc(-c2nc3c(nc2-c2ccc(OC)cc2)N(C)S(=O)(=O)N=C3N)cc1	> 100 µM	
COc1ccc(-c2nc(-c3nc4ccc(C(F)(F)F)cc4[nH]3)c3ccccn23)cc1	> 100 µM	> 100 µM
COc1cc2cc(C(=O)N3CC(CCl)c4c3cc(O)c3ccccc43)[nH]c2c(OC)c1OC (centres undefined)	5.86 µM	
CN1CCN(c2ccc(C(=O)Nc3cccc(C#Cc4cccc5[nH]nc(N)c45)c3)cc2C(F)(F)F)CC1	4.23 µM	1.19 µM
Cn1c(C(C)(C)OC(=O)Oc2ccccc2)cnc1[N+](=O)[O-]	> 100 µM	
CN(C)CCOc1ccc(-c2cc(-c3ccc4c(c3)CC/C4=N\O)c(-c3ccncc3)o2)cc1	9.28 µM	4.42 µM
Cc1c(N=NN(C)C)cc[n+]([O-])c1C	> 100 µM	
C#CC(=O)OCC#CCOC(=O)C#C	> 100 µM	
O=C1CCCC[C@H]1C(O)CC1CC(=O)N(c2ccccc2)C(=O)C1 (some centres undefined)	> 100 µM	
COc1cc(C2C3=C(COC3=O)Nc3cc4c(cc32)OCO4)cc2c1OCO2 (centres undefined)	> 100 µM	0.233 µM
Cc1nc2ccccc2c(=O)n1/N=C/c1ccc(N(C)C)cc1	> 100 µM	
S=C(c1c[nH]c2ccccc12)N1CCCCC1	> 100 µM	
Oc1ccccc1C=Nc1ccccc1N=Cc1ccccc1O.[Cu+2]	20.5 µM	6.63 µM
C=CCn1c(-c2ccc(Cl)cc2Cl)csc1=Nc1c(C)n(C)n(-c2ccccc2)c1=O	28 µM	
CC(=O)OC1OC(c2ccoc2)C[C@@]12C1CCC3O[C@]3(C)[C@]1(C)C[C@H](OC(C)=O)[C@H]2C (some centres undefined)	> 75 µM	

Reference: PubChem BioAssay (NCI)
